# The campaign covered roughly 48,000 compounds. About 450 (0.94%) were called active. The shares of active, inactive and inconclusive entries below differ from those in the screen. The call rests on the fitted dose curve; in most records, active means well fitted inhibition curve with a large enough effect; inconclusive means small, poorly fitted or top-dose-only effect; inactive means no such curve, though single readings can be large or run the other way. A potency beside an inconclusive call is a rough fit, not a confirmed value.
# Assay: Primary qHTS for Identification of Small Molecule Inhibitors of Huntingtin Promoter Activity; further: nearly all actives have a fitted effect of over 50% in size
# Settings: HEK293 HTT promoter firefly luciferase reporter (activity 0% = vehicle and -100% = no light), 24 h; activity change, negative = inhibition: at 57.5 µM (top of the series)
# Method in brief: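 HEK293 Fluc reporter, 2,500 cells/well, 24 h pre-culture; cpds up to 57.5 uM final, 24 h 37 degrees C; Dual-Glo, 10 min RT; normalized vehicle = 0%, zero RLU = -100%.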
# Potency means the concentration at half of the fitted maximal effect; tags describe the fitted curve by direction and shape.
SMILES,Potency,"activity change, negative = inhibition"
CC(C)Cc1ccc(S(=O)(=O)N2CCC(c3ccncc3)CC2)cc1,active: 15.8 µM,
COC(=O)c1ccc(NC(=O)CCS(=O)(=O)c2ccc(Br)s2)cc1,"inconclusive: 39.8 µM [inhibitor, single point]",
COc1ccc(C(=O)CSc2nc(C)cc(C)c2C(=O)Nc2ccccc2C)cc1,inactive,
CCc1ccc(CNC(=O)c2c3c(nc4ccccc24)C(=O)N(C2CCCCC2)C3)cc1,"inconclusive: 39.8 µM [inhibitor, single point]",
CCOC(=O)c1c(C)[nH]c(C)c1S(=O)(=O)N(C)CC(=O)Nc1cc(Cl)ccc1C,"inconclusive: 35.5 µM [inhibitor, single point]",
CCOC(=O)c1ccc(N2C(=O)c3[nH]nc(-c4ccc(C)cc4)c3C2c2ccc(O)c(OCC)c2)cc1 (stereo not drawn),"inconclusive: 35.5 µM [inhibitor, single point]",
COc1cc2c(=O)c(C(=O)c3ccc(C)c(C)c3)cn(Cc3ccccc3F)c2cc1OC,"inconclusive: 35.5 µM [inhibitor, single point]",
CC1=C(C(=O)OCc2ccc(C)cc2)C(c2ccccc2F)CC(=O)N1 (stereo not drawn),"inconclusive: 25.1 µM [inhibitor, partial curve, poor fit]",
CCOc1ccc(-c2nnc(SCC(=O)Nc3cccc(OC)c3)nc2-c2ccc(OCC)cc2)cc1,inactive,
COc1ccc(C(=O)NCC(c2ccc3c(c2)OCO3)N2CCN(c3ccccc3F)CC2)cc1 (stereo not drawn),"inconclusive: 31.6 µM [inhibitor, partial curve]",
Cc1ccccc1-c1nnn(CC(=O)Nc2sc3c(c2C#N)CCC(C(C)(C)C)C3)n1 (stereo not drawn),inactive,
CCOC(=O)c1c(NC(=O)c2nc(S(C)(=O)=O)ncc2Cl)sc(C(C)=O)c1C,inactive,
O=C1CCCc2cc(S(=O)(=O)N3CCCC(C(=O)NCc4ccc(Cl)cc4)C3)ccc2N1 (stereo not drawn),"inconclusive: 20 µM [inhibitor, partial curve, poor fit]",
Cc1ccc2c(c1)N(CCCC(=O)Nc1cccc(C(F)(F)F)c1)C(=O)CO2,"inconclusive: 35.5 µM [inhibitor, single point]",
CCCCN1C(=O)C(O)(CC(=O)c2ccc(C(C)(C)C)cc2)c2ccccc21 (stereo not drawn),"inconclusive: 25.1 µM [inhibitor, partial curve, poor fit]",
COc1cc(NC(=O)Cn2cc(C(=O)c3ccc(F)cc3)c(=O)c3ccc(C)nc32)cc(OC)c1,"inconclusive: 39.8 µM [inhibitor, single point]",
CC(C)NC(=O)c1ccc(NC(=O)N2CCCCc3ccccc32)cc1,"inconclusive: 39.8 µM [inhibitor, partial curve, poor fit]",
COc1ccc(-c2cc3c(C)nc(N)nc3n(C3CCC(OCCO)CC3)c2=O)cn1 (stereo not drawn),"inconclusive: 0.137 µM [inhibitor, full curve]",
Cc1ccc(NC(=O)c2cnn3c2NC(c2ccccc2)=CC3c2ccccc2)cc1 (stereo not drawn),"inconclusive: 31.6 µM [inhibitor, single point]",

SMILES,Potency,"activity change, negative = inhibition"
CCCn1c2ccccc2c2nnc(SCC(=O)Nc3cccc(C(C)=O)c3)nc21,"inconclusive: 39.8 µM [inhibitor, single point]",
CCN(Cc1ccccc1)C(=O)c1cnn(-c2ccc(F)cc2)c1-n1cccc1,"inconclusive: 39.8 µM [inhibitor, single point]",
CCC(Sc1nnc(C)n2c1cc1occc12)C(=O)Nc1ccccc1OC (stereo not drawn),inactive,
CC(=O)c1ccc(NC(=O)Cn2nc(N3CCN(c4ccccc4)CC3)ccc2=O)cc1,inactive,
CC(=O)c1sc(N2C(=O)c3oc4ccccc4c(=O)c3C2c2ccc(C)cc2)nc1C (stereo not drawn),,inactive: -13.5% [at 11.5 µM]
CC(C)c1nc2ccc(C(=O)Nc3ccccc3F)cc2o1,"inconclusive: 39.8 µM [inhibitor, single point]",
CCOc1cc(CNC(=O)CN2CCSc3ccccc32)cc(OCC)c1OCC,"inconclusive: 39.8 µM [inhibitor, partial curve, poor fit]",
CN1C(C(=O)Nc2ccc(OC(F)(F)F)cc2)=CC(c2cccs2)=NS1(=O)=O,"inconclusive: 35.5 µM [inhibitor, single point]",
CCC(C)SSc1ncc[nH]1 (stereo not drawn),inactive,
CN(C)c1ccc(CNC(=O)Cn2c(=O)oc3cc(S(=O)(=O)N4CCCCCC4)ccc32)cc1,"inconclusive: 28.2 µM [inhibitor, partial curve, poor fit]",
Cc1ccc(NC(=O)Cc2coc3ccc(C(C)C)cc23)cc1Cl,"inconclusive: 15.8 µM [inhibitor, partial curve]",
COc1ccc(-n2c(=O)[nH]c3cc(C(=O)NCCc4ccccc4)ccc3c2=O)cc1OC,"inconclusive: 25.1 µM [inhibitor, partial curve, poor fit]",
COc1ccc(-n2c(SCC(=O)NCc3ccc(C)cc3)nc3n[nH]c(C)c3c2=N)cc1,inactive,
Cc1ccccc1-n1c(Cn2nc(-c3cccc(O)c3)c3c(N)ncnc32)nc2cccc(C)c2c1=O,"inconclusive: 6.85 µM [inhibitor, partial curve, poor fit]",
COc1cc(Nc2nc3ccccc3nc2NS(=O)(=O)c2ccc(NC(=O)c3ccc(C)c(OC)c3)cc2)cc(OC)c1,"inconclusive: 21.7 µM [inhibitor, partial curve, poor fit]",
Fc1ccc(-c2nc(Nc3cccc(C(F)(F)F)c3)nc3c2COc2ccccc2-3)cc1,"inconclusive: 28.2 µM [inhibitor, single point]",
CCn1cc(C(=O)NCc2ccc(Cl)cc2)c(=O)c2cc(S(=O)(=O)N(C)C3CCCCC3)ccc21,"inconclusive: 22.4 µM [inhibitor, single point]",
Cc1cccc(Cc2c(C)nc3c(-c4ccccc4)c(C)[nH]n3c2=O)c1,"inconclusive: 31.6 µM [inhibitor, partial curve, poor fit]",
COc1ccc(NS(=O)(=O)c2ccc3nc(-c4ccccc4)[nH]c3c2)cc1,"inconclusive: 28.2 µM [inhibitor, partial curve, poor fit]",
